{"source": "the supplement of paper PMC8728848", "binders": {"B1": {"name": "Surfactant Protein D (Human); Neck + Carbohydrate Recognition Domain (NCRD) (Homo sapiens) (protein)", "chain": "MLLFLLSALVLLTQPLGYLEAEMKTYSHRTMPSACTLVMCSSVESGLPGRDRDGREGPRGEKGDPGLPGAAGQAGMPGQAGPVGPKGDNGSVGEPGPKGDTGPSGPPGPPGVPGPAGREGALGKQGNIGPQGKPGPKGEAGPKGEVGAPGMQGSAGARGLAGPKGERGVPGERGVPGNTGAAGSAGAMGPQGSPGARGPPGLKGDKGIPGDKGAKGESGLPDVASLRQQVEALQGQVQHLQAAFSQYKKVELFPNGQSVGEKIFKTAQFVKPFTEAQLLCTQAGGQLASPRSAAENAALQQLVVAKNEAAFLSMTDSKTEGKFTYPTGESLVYSNWAPGEPNDAGGSEDCVEIFTNGKWNDRACGEKRLVVCEF"}}, "test_in_all_cases": "glycan array binding signal (z-score within array); higher = stronger binding", "details_in_all_cases": "glycan notation: IUPAC condensed, linker removed; mutation: D325A", "key": {"[1]": {"target": "Gal(b1-4)GlcNAc(b1-3)Gal(b1-4)GlcNAc(b1-3)Gal(b1-4)GlcNAc", "outline": "(§1)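 The Consortium for Functional Glycomics database supplied 3228 glycan arrays, of which those lacking an available protein sequence were dropped. The binding signal, a within-array Z-score, was averaged across arrays of the same protein sequence and across linkers. Negative scores can be read as non-binding.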"}, "[2]": {"target": "Gal(b1-4)GlcNAc(b1-3)Gal(b1-4)[Fuc(a1-3)]GlcNAc(b1-3)Gal(b1-4)[Fuc(a1-3)]GlcNAc", "outline": "as §1"}, "[3]": {"target": "Gal(b1-4)GlcNAc(b1-3)GalNAc", "outline": "as §1"}, "[4]": {"target": "Gal(b1-4)GlcNAc(b1-3)[Gal(b1-4)GlcNAc(b1-6)]Gal(b1-4)GlcNAc", "outline": "as §1"}, "[5]": {"target": "Gal(b1-4)GlcNAc(b1-3)[GlcNAc(b1-6)]Gal(b1-4)GlcNAc", "outline": "as §1"}, "[6]": {"target": "Gal(b1-4)GlcNAc(b1-6)Gal(b1-4)GlcNAc", "outline": "as §1"}, "[7]": {"target": "Gal(b1-4)GlcNAc(b1-6)Gal(b1-4)GlcNAc(b1-6)GalNAc", "outline": "as §1"}, "[8]": {"target": "Gal(b1-4)GlcNAc(b1-6)GalNAc", "outline": "as §1"}, "[9]": {"target": "Gal(b1-4)GlcNAc(b1-6)[Gal(b1-3)]GalNAc", "outline": "as §1"}, "Gal3S(b1-3)GalNAc": {"target": "Gal3S(b1-3)GalNAc", "outline": "as §1"}, "Gal3S(b1-3)GlcNAc": {"target": "Gal3S(b1-3)GlcNAc", "outline": "as §1"}, "[10]": {"target": "Gal3S(b1-3)[Fuc(a1-4)]GlcNAc", "outline": "as §1"}, "Gal3S(b1-4)Glc": {"target": "Gal3S(b1-4)Glc", "outline": "as §1"}, "Gal3S(b1-4)Glc6S": {"target": "Gal3S(b1-4)Glc6S", "outline": "as §1"}, "Gal3S(b1-4)GlcNAc": {"target": "Gal3S(b1-4)GlcNAc", "outline": "as §1"}, "Gal3S(b1-4)GlcNAc6S": {"target": "Gal3S(b1-4)GlcNAc6S", "outline": "as §1"}, "[11]": {"target": "Gal3S(b1-4)[Fuc(a1-3)]Glc", "outline": "as §1"}, "Gal3S4S(b1-4)GlcNAc": {"target": "Gal3S4S(b1-4)GlcNAc", "outline": "as §1"}, "Gal3S6S(b1-4)GlcNAc": {"target": "Gal3S6S(b1-4)GlcNAc", "outline": "as §1"}, "Gal3S6S(b1-4)GlcNAc6S": {"target": "Gal3S6S(b1-4)GlcNAc6S", "outline": "as §1"}, "Gal4S(b1-4)GlcNAc": {"target": "Gal4S(b1-4)GlcNAc", "outline": "as §1"}, "Gal4S6S(b1-4)GlcNAc": {"target": "Gal4S6S(b1-4)GlcNAc", "outline": "as §1"}, "Gal6S(b1-4)Glc": {"target": "Gal6S(b1-4)Glc", "outline": "as §1"}, "Gal6S(b1-4)Glc6S": {"target": "Gal6S(b1-4)Glc6S", "outline": "as §1"}, "Gal6S(b1-4)GlcNAc": {"target": "Gal6S(b1-4)GlcNAc", "outline": "as §1"}, "Gal6S(b1-4)GlcNAc6S": {"target": "Gal6S(b1-4)GlcNAc6S", "outline": "as §1"}, "GalNAc(a1-3)Gal": {"target": "GalNAc(a1-3)Gal", "outline": "as §1"}, "GalNAc(a1-3)GalNAc": {"target": "GalNAc(a1-3)GalNAc", "outline": "as §1"}, "GalNAc(b1-3)Gal": {"target": "GalNAc(b1-3)Gal", "outline": "as §1"}, "[12]": {"target": "GalNAc(b1-3)Gal(a1-4)Gal(b1-4)GlcNAc", "outline": "as §1"}, "GalNAc(b1-3)GalNAc": {"target": "GalNAc(b1-3)GalNAc", "outline": "as §1"}, "GalNAc(b1-4)GlcNAc": {"target": "GalNAc(b1-4)GlcNAc", "outline": "as §1"}, "Glc(a1-4)Glc": {"target": "Glc(a1-4)Glc", "outline": "as §1"}, "Glc(a1-6)Glc(a1-6)Glc": {"target": "Glc(a1-6)Glc(a1-6)Glc", "outline": "as §1"}, "Glc(b1-4)Glc": {"target": "Glc(b1-4)Glc", "outline": "as §1"}, "Glc(b1-6)Glc": {"target": "Glc(b1-6)Glc", "outline": "as §1"}, "GlcA(b1-3)Gal": {"target": "GlcA(b1-3)Gal", "outline": "as §1"}}, "note": "This is one part of the list."}
{"binder": "B1", "values": [{"measurement": "glycan array binding signal (z-score)", "setting": "[1]", "value": -0.267}, {"measurement": "glycan array binding signal (z-score)", "setting": "[2]", "value": -0.152}, {"measurement": "glycan array binding signal (z-score)", "setting": "[3]", "value": -0.215}, {"measurement": "glycan array binding signal (z-score)", "setting": "[4]", "value": -0.271}, {"measurement": "glycan array binding signal (z-score)", "setting": "[5]", "value": -0.273}, {"measurement": "glycan array binding signal (z-score)", "setting": "[6]", "value": -0.186}, {"measurement": "glycan array binding signal (z-score)", "setting": "[7]", "value": -0.247}, {"measurement": "glycan array binding signal (z-score)", "setting": "[8]", "value": -0.267}, {"measurement": "glycan array binding signal (z-score)", "setting": "[9]", "value": -0.262}, {"measurement": "glycan array binding signal (z-score)", "setting": "Gal3S(b1-3)GalNAc", "value": -0.274}, {"measurement": "glycan array binding signal (z-score)", "setting": "Gal3S(b1-3)GlcNAc", "value": -0.264}, {"measurement": "glycan array binding signal (z-score)", "setting": "[10]", "value": -0.181}, {"measurement": "glycan array binding signal (z-score)", "setting": "Gal3S(b1-4)Glc", "value": -0.271}, {"measurement": "glycan array binding signal (z-score)", "setting": "Gal3S(b1-4)Glc6S", "value": -0.266}, {"measurement": "glycan array binding signal (z-score)", "setting": "Gal3S(b1-4)GlcNAc", "value": -0.249}, {"measurement": "glycan array binding signal (z-score)", "setting": "Gal3S(b1-4)GlcNAc6S", "value": -0.261}, {"measurement": "glycan array binding signal (z-score)", "setting": "[11]", "value": -0.256}, {"measurement": "glycan array binding signal (z-score)", "setting": "Gal3S4S(b1-4)GlcNAc", "value": -0.263}, {"measurement": "glycan array binding signal (z-score)", "setting": "Gal3S6S(b1-4)GlcNAc", "value": -0.26}, {"measurement": "glycan array binding signal (z-score)", "setting": "Gal3S6S(b1-4)GlcNAc6S", "value": -0.267}, {"measurement": "glycan array binding signal (z-score)", "setting": "Gal4S(b1-4)GlcNAc", "value": -0.264}, {"measurement": "glycan array binding signal (z-score)", "setting": "Gal4S6S(b1-4)GlcNAc", "value": -0.275}, {"measurement": "glycan array binding signal (z-score)", "setting": "Gal6S(b1-4)Glc", "value": -0.245}, {"measurement": "glycan array binding signal (z-score)", "setting": "Gal6S(b1-4)Glc6S", "value": -0.268}, {"measurement": "glycan array binding signal (z-score)", "setting": "Gal6S(b1-4)GlcNAc", "value": -0.262}, {"measurement": "glycan array binding signal (z-score)", "setting": "Gal6S(b1-4)GlcNAc6S", "value": -0.274}, {"measurement": "glycan array binding signal (z-score)", "setting": "GalNAc(a1-3)Gal", "value": -0.273}, {"measurement": "glycan array binding signal (z-score)", "setting": "GalNAc(a1-3)GalNAc", "value": -0.272}, {"measurement": "glycan array binding signal (z-score)", "setting": "GalNAc(b1-3)Gal", "value": -0.234}, {"measurement": "glycan array binding signal (z-score)", "setting": "[12]", "value": -0.247}, {"measurement": "glycan array binding signal (z-score)", "setting": "GalNAc(b1-3)GalNAc", "value": -0.273}, {"measurement": "glycan array binding signal (z-score)", "setting": "GalNAc(b1-4)GlcNAc", "value": -0.221}, {"measurement": "glycan array binding signal (z-score)", "setting": "Glc(a1-4)Glc", "value": 0.526}, {"measurement": "glycan array binding signal (z-score)", "setting": "Glc(a1-6)Glc(a1-6)Glc", "value": -0.222}, {"measurement": "glycan array binding signal (z-score)", "setting": "Glc(b1-4)Glc", "value": -0.269}, {"measurement": "glycan array binding signal (z-score)", "setting": "Glc(b1-6)Glc", "value": -0.259}, {"measurement": "glycan array binding signal (z-score)", "setting": "GlcA(b1-3)Gal", "value": -0.267}]}
